Assay results from paper PMC5316855.
These are yes or no findings as the source states them, for the method shown. In cells and extracts the contact can be indirect. Some results given as binding are weak or reduced against the parent protein; the word gives no strength.

Sequences of proteins named here, by UniProt entry; tags and fusion partners are left off.
UniProt P11802: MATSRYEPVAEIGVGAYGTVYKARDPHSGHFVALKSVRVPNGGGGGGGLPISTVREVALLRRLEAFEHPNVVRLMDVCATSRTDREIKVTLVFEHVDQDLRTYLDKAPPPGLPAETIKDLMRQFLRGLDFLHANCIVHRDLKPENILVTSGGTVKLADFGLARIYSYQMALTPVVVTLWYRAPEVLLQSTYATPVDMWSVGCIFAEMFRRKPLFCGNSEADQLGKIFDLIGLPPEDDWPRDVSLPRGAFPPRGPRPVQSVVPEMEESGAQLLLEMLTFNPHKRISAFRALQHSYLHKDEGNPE

Columns and labels:
CDK4 (human) = CDK4 (human) (UniProt P11802); assay: FRET or BRET; TR-FRET high-throughput screen, 384-well; GST- and Venus-Flag-fusions co-transfected in H1299 cells, whole cell lysate, anti-GST-terbium antibody, 4 °C; both fusion orientations, triplicates, three rounds; positives by FOC, P and q values against GST-only and Venus-only controls
GST-CDK4 (human) = GST-CDK4 (human) (UniProt P11802); assay: pull-down; GST-affinity pull-down from lysates of transfected HEK293T cells; 1% NP-40 buffer, glutathione-conjugated beads 2 h at 4 °C, three washes, western blot; in Figure 5i the cells were treated with palbociclib

| binding (CDK4 (human)) | binding (GST-CDK4 (human)) | Binder |
| --- | --- | --- |
| binds | binds | MKK3 (protein, UniProt P46734 1-347) MESPASSQPASMPQSKGKSKRKKDLRISCMSKPPAPNPTPPRNLDSRTFITIGDRNFEVEADDLVTISELGRGAYGVVEKVRHAQSGTIMAVKRIRATVNSQEQKRLLMDLDINMRTVDCFYTVTFYGALFREGDVWICMELMDTSLDKFYRKVLDKNMTIPEDILGEIAVSIVRALEHLHSKLSVIHRDVKPSNVLINKEGHVKMCDFGISGYLVDSVAKTMDAGCKPYMAPERINPELNQKGYNVKSDVWSLGITMIEMAILRFPYESWGTPFQQLKQVVEEPSPQLPADRFSPEFVDFTAQCLRKNPAERMSYLELMEHPFFTLHKTKKTDIAAFVKEILGEDS |
| binds | binds | MKK5 (protein, UniProt Q13163 1-448) MLWLALGPFPAMENQVLVIRIKIPNSGAVDWTVHSGPQLLFRDVLDVIGQVLPEATTTAFEYEDEDGDRITVRSDEEMKAMLSYYYSTVMEQQVNGQLIEPLQIFPRACKPPGERNIHGLKVNTRAGPSQHSSPAVSDSLPSNSLKKSSAELKKILANGQMNEQDIRYRDTLGHGNGGTVYKAYHVPSGKILAVKVILLDITLELQKQIMSELEILYKCDSSYIIGFYGAFFVENRISICTEFMDGGSLDVYRKMPEHVLGRIAVAVVKGLTYLWSLKILHRDVKPSNMLVNTRGQVKLCDFGVSTQLVNSIAKTYVGTNAYMAPERISGEQYGIHSDVWSLGISFMELALGRFPYPQIQKNQGSLMPLQLLQCIVDEDSPVLPVGEFSEPFVHFITQCMRKQPKERPAPEELMGHPFIVQFNDGNAAVVSMWVCRALEERRSQQGPP |
